Results on 86 compounds are retold here after PMC4336329 (PLoS ONE, 2015).

About 14,000 (4.5%) of roughly 310,000 compounds showed an effect of 50% or more. Effects have a minus sign here. The list shows a part of the results.
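Further: peak tail current of the secondary pulse compared with the same well before compound.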

human ether-à-go-go-related gene (hERG) potassium channel, sequence (Q12809 whole entry, looked up): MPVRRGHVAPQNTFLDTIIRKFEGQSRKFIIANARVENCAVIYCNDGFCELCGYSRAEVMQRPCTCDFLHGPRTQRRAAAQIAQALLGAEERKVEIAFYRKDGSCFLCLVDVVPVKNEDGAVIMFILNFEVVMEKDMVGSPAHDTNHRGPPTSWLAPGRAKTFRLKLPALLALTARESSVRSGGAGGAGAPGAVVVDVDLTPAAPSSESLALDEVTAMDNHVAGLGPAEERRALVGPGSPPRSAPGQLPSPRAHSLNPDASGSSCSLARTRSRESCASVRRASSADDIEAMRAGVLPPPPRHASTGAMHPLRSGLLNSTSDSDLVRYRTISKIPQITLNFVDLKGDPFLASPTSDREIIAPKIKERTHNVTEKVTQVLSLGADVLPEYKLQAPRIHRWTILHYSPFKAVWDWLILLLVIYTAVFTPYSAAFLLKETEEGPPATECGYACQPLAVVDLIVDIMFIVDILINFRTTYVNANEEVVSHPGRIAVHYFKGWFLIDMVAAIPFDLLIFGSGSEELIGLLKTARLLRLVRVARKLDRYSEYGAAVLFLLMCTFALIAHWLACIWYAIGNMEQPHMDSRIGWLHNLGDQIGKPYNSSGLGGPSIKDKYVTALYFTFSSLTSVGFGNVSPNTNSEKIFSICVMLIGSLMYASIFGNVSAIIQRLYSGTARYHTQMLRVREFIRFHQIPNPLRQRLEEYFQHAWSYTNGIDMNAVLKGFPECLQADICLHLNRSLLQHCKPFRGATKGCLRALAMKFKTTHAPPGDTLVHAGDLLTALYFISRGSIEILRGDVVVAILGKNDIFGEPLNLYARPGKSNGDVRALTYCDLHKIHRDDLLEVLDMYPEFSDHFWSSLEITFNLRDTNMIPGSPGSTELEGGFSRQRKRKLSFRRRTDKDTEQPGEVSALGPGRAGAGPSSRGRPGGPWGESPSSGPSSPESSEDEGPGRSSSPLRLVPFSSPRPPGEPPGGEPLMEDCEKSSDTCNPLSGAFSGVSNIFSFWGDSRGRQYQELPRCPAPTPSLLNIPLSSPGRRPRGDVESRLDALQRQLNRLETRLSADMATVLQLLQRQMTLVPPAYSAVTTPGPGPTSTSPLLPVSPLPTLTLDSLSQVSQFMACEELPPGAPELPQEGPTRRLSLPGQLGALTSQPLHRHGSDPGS

This experiment has as its target human ether-à-go-go-related gene (hERG) potassium channel (human, UniProt Q12809). The experiment is described as follows: primary screen, population patch clamp on CHO cells stably expressing hERG.
For the compound `CCC1(CC)NC(=O)N(CC(=O)N2N=C(c3ccc(Cl)cc3)CC2c2ccco2)C1=O` (centres unmarked), the “hERG current change (%, negative = inhibition) at 10uM” value worked out at 12%.
For `O=C(Cn1cnnn1)Nc1cccc([N+](=O)[O-])c1`, the “hERG current change (%, negative = inhibition) at 10uM” value is given as -1.13%.
The value for `Cc1ccc(C(=O)c2c3ccc(C(F)(F)F)cc3[n+]([O-])n2CCCC(N)=O)cc1` was -62.9%; that for `COc1ccc(-c2noc(CCC(=O)NCCCN3CCN(c4ccc(F)cc4)CC3)n2)cc1` was -67.4%.
In the case of `O=C(N/N=C/c1cc(Br)c(Br)o1)C(O)c1ccccc1` (centres unmarked), the “hERG current change (%, negative = inhibition) at 10uM” value is on record as 2.58%.
Regarding `COc1ccc(S(=O)(=O)N(CC(=O)N2CCCC2)Cc2ccccc2)cc1`, the “hERG current change (%, negative = inhibition) at 10uM” value is recorded as -21.8%.
For `CCNc1ccc(C(=O)OCC)cc1NC(=O)c1cccc(S(=O)(=O)N2CCOCC2)c1`, the “hERG current change (%, negative = inhibition) at 10uM” value is given as -3.02%.
Turning to `O=C(CSc1ccccc1C(=O)O)NC12CC3CC(CC(C3)C1)C2`, the “hERG current change (%, negative = inhibition) at 10uM” value is 16.6%.
With `CS(=O)(=O)N(CC(=O)N1CCN(c2cccc(Cl)c2)CC1)c1ccccc1`, the “hERG current change (%, negative = inhibition) at 10uM” value was -2.44%.
Turning to `CC(=O)c1sc(NC(=O)CCCOc2ccccc2C)nc1C`, the “hERG current change (%, negative = inhibition) at 10uM” value was 20.8%.
The value for `Cc1nc(CSc2nnc3scc(-c4ccc(Cl)cc4)n23)cs1` was -1.39%; that for `CCOC(=O)c1[nH]c2ccccc2c1NC(=S)Nc1cccc(C)c1` was 9.82%.
As to `CC(C)Oc1ccc(CNC(=O)Cn2c(=O)c3cccn3c3cccnc32)cc1`, the “hERG current change (%, negative = inhibition) at 10uM” value was -9.4%.
`COc1cc(Cl)c(C)cc1NC(=O)c1ccc2c(c1)OCO2`: the “hERG current change (%, negative = inhibition) at 10uM” value came to 19%.
As to `COc1ccc(Cn2cnc3c([N+](=O)[O-])c(C)c(C)cc32)cc1`, the “hERG current change (%, negative = inhibition) at 10uM” value is listed as -31.4%.
With `CCOC(=O)[C@H]1[C@H]2COc3cc(OC)ccc3[C@@H]2N2C(=O)c3ccc(F)cc3NC(=O)[C@@]12C`, the “hERG current change (%, negative = inhibition) at 10uM” value is recorded as 5.46%.
`O=C(COc1ccccc1)N1c2ccccc2Sc2ccccc21`: the “hERG current change (%, negative = inhibition) at 10uM” value is recorded as 5.54%.
Regarding `COc1ccc2c(c1)CC1(CN2C)C(=O)NC(=O)N(CCc2ccccc2)C1=O` (centres unmarked), the “hERG current change (%, negative = inhibition) at 10uM” value was -13.1%.
The value for `CCCNc1cc(C)c(C#N)c2nc3ccccc3n12` was 10.6%; that for `CCOc1ccccc1NC(=O)C1CCN(c2ccc(S(=O)(=O)N3CCCC3)cc2)CC1` was -6.65%; that for `CCN(c1ccccc1)S(=O)(=O)c1ccc(C(=O)NCCc2ccc(S(N)(=O)=O)cc2)cc1` was 5.49%.
With `O=C(CCS(=O)(=O)c1ccc(F)cc1)N1CCN(c2ccccc2)CC1`, the “hERG current change (%, negative = inhibition) at 10uM” value is given as -23.2%.
For `CN1CCCN(C(=O)c2ccc(Cl)cc2)CC1`, the “hERG current change (%, negative = inhibition) at 10uM” value is 5.68%.
Regarding `Cc1ccc(-c2csc3ncnc(Sc4nnc(CN5CCCCCC5=O)o4)c23)cc1`, the “hERG current change (%, negative = inhibition) at 10uM” value is -47.5%.
`COc1ccc(-c2cc(C(=O)N3CCc4ccccc4C3)no2)cc1`: the “hERG current change (%, negative = inhibition) at 10uM” value is -0.668%.
On to `Cc1ccccc1N1CCN(C2CCCN(C(=O)c3cc[n+]([O-])cc3)C2)CC1` (centres unmarked), for which the “hERG current change (%, negative = inhibition) at 10uM” value turned out to be 9.87%.
As for `O=C(NC(C(=O)N/N=C/c1cc([N+](=O)[O-])ccc1O)c1n[nH]c(=O)c2ccccc12)c1ccccc1` (centres unmarked), the “hERG current change (%, negative = inhibition) at 10uM” value was determined as 24.2%.
In the case of `O=C(NCCNS(=O)(=O)c1ccc(C(F)(F)F)cc1)N1CCOCC1`, the “hERG current change (%, negative = inhibition) at 10uM” value came out at 6.84%.
As to `O=C(c1ccco1)N1CCN(Cc2nc(-c3cccs3)no2)CC1`, the “hERG current change (%, negative = inhibition) at 10uM” value is -38.1%.
The result for `COc1ccc(C(=O)N/C(=C/c2cccs2)C(=O)NC(C)(C)C)cc1OC` reads 5.42%.
As to `CN1CCC(=O)N([C@H](CSc2ccccc2)c2ccccc2)CC1`, the “hERG current change (%, negative = inhibition) at 10uM” value was -64.9%.
Regarding `CCOc1nc(-c2ccccc2)ccc1-c1noc(-c2cccs2)n1`, the “hERG current change (%, negative = inhibition) at 10uM” value was found to be 7.09%.
The result for `CCn1c(C)nc2cc(S(=O)(=O)C(F)(F)C(F)C(F)(F)F)ccc21` (centres unmarked) reads -8.09%.
Take `COc1ccc2nc(/C=N/NC(=O)CCNC(=O)OC(C)(C)C)ccc2c1`: the “hERG current change (%, negative = inhibition) at 10uM” value was -8.34%.
On to `COc1cc(C2N(C)C(=O)c3ccccc3N2C)ccc1O` (centres unmarked), for which the “hERG current change (%, negative = inhibition) at 10uM” value worked out at 13.2%.
Take `N=C1S/C(=C\c2ccc(O)cc2)C(=O)N1c1ccc(F)cc1`: the “hERG current change (%, negative = inhibition) at 10uM” value stood at 23.3%.
The result for `Cn1c(SCC(=O)NC(=O)c2cccc([N+](=O)[O-])c2)nnc1-c1ccc(F)cc1` reads -23.3%; that for `CC1=NCCN1S(=O)(=O)c1ccccc1[N+](=O)[O-]`, 24.2%.
Consider `COC(=O)c1sccc1NC(=O)Nc1ccc(OC)cc1OC`, for which the “hERG current change (%, negative = inhibition) at 10uM” value is recorded as -20.3%.
Turning to `COc1ccc(NC(=O)c2ccccn2)cc1S(=O)(=O)N1CCOCC1`, the “hERG current change (%, negative = inhibition) at 10uM” value turned out to be 8.52%.
For `CCCC(=O)O[C@]1(C(=O)CO)CC[C@H]2[C@@H]3CCC4=CC(=O)CC[C@]4(C)[C@H]3[C@@H](O)C[C@@]21C`, the “hERG current change (%, negative = inhibition) at 10uM” value is recorded as 0.491%.
As to `COC(=O)c1[nH]c2ccccc2c1NS(=O)(=O)c1ccc(OC)cc1OC`, the “hERG current change (%, negative = inhibition) at 10uM” value is listed as -15.8%.
The result for `O=C(Nc1ccc(S(=O)(=O)NCc2ccccc2)cc1)C1CCCCC1` reads 17.7%.
On to `CC(C)(C)C(=O)Nc1ncc(C(F)(F)F)cc1Cl`, for which the “hERG current change (%, negative = inhibition) at 10uM” value was 0.581%.
The result for `Cc1cccc(OCCC(=O)Nc2ccc(N3CCOCC3)cc2N2CCOCC2)c1` reads -19.7%; that for `O=C(N/N=C/c1ccc(C(F)(F)F)cc1)c1ccncc1`, -18.9%; that for `ClCc1csc(-c2ccc(Cl)cc2)n1`, -0.346%.
In the case of `O=C(CN1CC(c2ccccc2)CC1=O)N/N=C/c1cc(Br)ccc1O` (centres unmarked), the “hERG current change (%, negative = inhibition) at 10uM” value is reported as -10.6%.
In the case of `C=CCn1c(=O)c(C(=O)NCc2ccc3c(c2)OCO3)c(O)c2ccccc21`, the “hERG current change (%, negative = inhibition) at 10uM” value was 21%.
For `CC1CC(C)CN(S(=O)(=O)c2cccc(C(=O)N3C(=O)c4cccc(N)c4C3=O)c2)C1` (centres unmarked), the “hERG current change (%, negative = inhibition) at 10uM” value is reported as 3.91%.
Regarding `Cc1sc2ncnc(NC(C)C(=O)O)c2c1C` (centres unmarked), the “hERG current change (%, negative = inhibition) at 10uM” value was 22.8%.
With `CC(C)C(=O)N1CCN(c2ccc(NC(=O)c3ccc4c(c3)OCCO4)cc2)CC1`, the “hERG current change (%, negative = inhibition) at 10uM” value is given as 10.6%.
Turning to `CC1(C)S[C@@H]2[C@H](NC(=O)COc3ccccc3)C(=O)N2C1C(=O)OCc1cc2ccccc2n1S(=O)(=O)c1ccccc1` (some centres unmarked), the “hERG current change (%, negative = inhibition) at 10uM” value amounted to 5.99%.
The result for `O=C(Oc1cc(=O)oc2c1c(=O)n1c3c(cccc23)CC1)c1ccc(F)cc1` reads -12.2%; that for `COc1cc(C2C3=C(CC(C)(C)CC3=O)NC3=C2C(=O)c2ccccc23)ccc1O` (centres unmarked), 7.83%.
In the case of `C=C1CCN([C@@H](CC(C)C)C(=O)NCc2ccc(Cl)c(Cl)c2)S(=O)(=O)c2ccccc21`, the “hERG current change (%, negative = inhibition) at 10uM” value is 7.07%.
The result for `COCCNC(=O)C(=O)NCCN1CCOCC1` reads 1.18%; that for `COc1ccc(NC(=O)COc2cccc3c2CCN(Cc2cccnc2)C3=O)cc1`, -34.4%.
On to `COc1ccc(C(=O)n2cc(C(=O)c3cc(C)ccc3O)cn2)cc1`, for which the “hERG current change (%, negative = inhibition) at 10uM” value came to 5.84%.
For `O=C(N1CCOCC1)N1c2ccccc2Sc2ccccc21`, the “hERG current change (%, negative = inhibition) at 10uM” value was -12.4%.
The value for `Cc1cc(C)cc(N(CCC(=O)O)S(=O)(=O)c2ccc3ccccc3c2)c1` was 3%; that for `O=C(CSc1nnc(COc2ccccc2F)n1-c1ccccc1)NC1CCS(=O)(=O)C1` (centres unmarked) was 9.97%; that for `Cc1cccc(C)c1OP(N)(=O)OCC(F)(F)F` (centres unmarked) was -26.4%.
As to `Cc1cc(C)cc(NC(=S)NCc2ccc(S(N)(=O)=O)cc2)c1`, the “hERG current change (%, negative = inhibition) at 10uM” value amounted to 8.2%.
The value for `CC1CCN(S(=O)(=O)c2cc(Cl)ccc2Br)CC1` was -0.808%.
Consider `COC(=O)C1CCN(C(=O)Cc2ccc(C)cc2)CC1`, for which the “hERG current change (%, negative = inhibition) at 10uM” value is -6.4%.
As to `S=c1[nH]nc(-c2ccc3ccccc3n2)n1-c1ccc(Cl)cc1`, the “hERG current change (%, negative = inhibition) at 10uM” value worked out at 12%.
With `CCOc1ccc(-n2c(C)c(C(C)=O)c(C(C)=O)c2C)cc1`, the “hERG current change (%, negative = inhibition) at 10uM” value is reported as -8.53%.
In the case of `CC(=O)c1c(C)oc2c1C(=O)c1ccccc1C2=O`, the “hERG current change (%, negative = inhibition) at 10uM” value is recorded as -4.64%.
Regarding `O=S(=O)(NCCc1ccncc1)c1ccc(F)cc1`, the “hERG current change (%, negative = inhibition) at 10uM” value came out at 12%.
As to `O=c1[nH]c(N2CCc3ccccc32)nc2c1CCCC2`, the “hERG current change (%, negative = inhibition) at 10uM” value is on record as -0.355%.
The result for `O=C(CNC(=O)c1ccccc1)N/N=C/c1cccs1` reads 3.41%; that for `COc1ccc(C2C(C(=O)N3CCCCC3)CC(=O)N2c2ccc(OC)cc2)cc1` (centres unmarked), -35.6%; that for `CN1CCN(C2Cc3ccc(F)cc3Sc3cc(F)c(Cl)cc32)CC1.CS(=O)(=O)O.O` (centres unmarked), -77.3%.
The value for `COC(=O)C1=C(C)NC2=C(C(=O)CC(C)(C)C2)C1c1cn(Cc2ccc(Br)cc2)nc1-c1ccccc1` (centres unmarked) was -41.5%; that for `CCc1nnc(NC(=O)c2cc(Cl)ccn2)s1` was 6.87%.
For the compound `COc1ccc(-c2noc(-c3ccoc3C)n2)cc1`, the “hERG current change (%, negative = inhibition) at 10uM” value was 39.5%.
`Cc1ccc(C(=O)/C=C/Nc2ccccn2)cc1`: the “hERG current change (%, negative = inhibition) at 10uM” value is -1.05%.
Take `COc1cc(NC(=S)N2CCN(S(=O)(=O)c3ccc(F)cc3)CC2)cc(OC)c1`: the “hERG current change (%, negative = inhibition) at 10uM” value stood at 23%.
As to `CCc1cccc(C)c1NC(=O)c1ccc2c(c1)CCN2S(C)(=O)=O`, the “hERG current change (%, negative = inhibition) at 10uM” value is given as -21.4%.
`O=C(CSc1ncnc2ccccc12)NCC(=O)c1ccccc1`: the “hERG current change (%, negative = inhibition) at 10uM” value turned out to be 1.57%.
The value for `C=COCCn1c(-c2nonc2N)nc2ccccc21` was -3.07%.
`Cn1ncc2c(c(SCc3ccc(Cl)cc3Cl)nn2C)c1=O`: the “hERG current change (%, negative = inhibition) at 10uM” value is on record as 13.1%.
Regarding `COc1ccc(-c2cc(C(=O)N3CCCCCC3)no2)cc1`, the “hERG current change (%, negative = inhibition) at 10uM” value worked out at 6.31%.
With `COc1ccc(Cn2nnc3c(=O)[nH]c(C(=O)NCCc4ccc(F)cc4)nc32)cc1OC`, the “hERG current change (%, negative = inhibition) at 10uM” value turned out to be 7.28%.
Take `CCSc1nnc(-c2ccc(S(=O)(=O)NCc3cccs3)cc2)o1`: the “hERG current change (%, negative = inhibition) at 10uM” value is -1.73%.
